Results as given in PMC12040169 (PLOS Biology, 2025).
Some of the results follow.

tested on: T1, C. trachomatis L2/434/Bu expressing GFP (CTL2-GFP); set-up: species or system HeLa; C. trachomatis total inclusion area by high-content imaging, normalised to DMSO; conditions: total inclusion area; 28.5 h, 10 µM; inhibitor
T1 construct: L2/434/Bu GFP intracellular growth in HeLa cells
Method in brief: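 Post-fluorescence-read fixation, DNA staining with Hoechst and high-content imaging; GFP inclusion area and number per well, and nuclei counts, used as proxies for bacterial growth and host viability.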

Structure (SMILES)	% of control remaining
CC1CCN(S(=O)(=O)c2cccc(S(=O)(=O)c3cccc(S(=O)(=O)N4CCC(C)CC4)c3)c2)CC1 [CBK261731]	87.1015
CCN1C(=O)CC2(C1=O)C(=O)N(CCCOc1ccccc1OC)c1ccccc12 (stereo not drawn) [CBK075498]	93.9519
Cc1nc2c(c(=O)[nH]1)CN(Cc1ccc(Cl)cc1)CC2 [CBK282415]	101.389
c1cnc2[nH]c([C@H]3CCCO3)c(CN3CCCCC3)c2c1 [CBK282284]	102.962
CC(C)c1ccc(/C=C/C(=O)NCc2ccc(NS(C)(=O)=O)cc2)cc1 [CBK161512]	37.8151
CC(C)(C)c1cc(C(=O)NCCN)n(Cc2ccc(Cl)cc2Cl)n1 [CBK116631T]	56.4761
O=C(O)c1cccc(Cn2ccc3c(F)cccc32)c1 [CBK003453]	128.177
O=c1[nH]c2ncc(-c3ccc(OC(F)(F)F)cc3)nc2n1Cc1ccc(Cl)cc1 [CBK064409]	100.594
CN1CCN(c2nccnc2-c2ccccc2)CC1 [CBK088825]	102.75
Cc1sc2nc(SCC(=O)c3c[nH]c4ccccc34)nc(O)c2c1C [CBK264068]	114.764
O=C1CCC(C(=O)N2CCCC(c3cc4ccccc4cn3)C2)CC1 (stereo not drawn) [CBK284989]	105.986
CC(=O)Nc1cccc(NC(=O)CN(C)S(=O)(=O)c2ccc(F)cc2)c1 [CBK269951]	73.7377
Cc1ccc(Sc2nccn3c(=O)[nH]nc23)c(C)c1 [CBK288055]	85.8707
CN(C)CC1CN(C(=O)Cc2ccccc2F)Cc2ccccc2O1 (stereo not drawn) [CBK285327]	84.2744
CC1CN(S(=O)(=O)C(C)C)CCC1NCc1ccncc1 (stereo not drawn) [CBK304870]	62.5872
Cc1csc(Sc2nccc(C(F)(F)F)n2)n1 [CBK093770]	80.944
Cc1ccc(S(=O)(=O)N2CCN(CCCc3ccccc3)CC2)cc1 [CBK263453]	91.914
CN(C)CC(=O)N1c2ccccc2CCc2ccc(NC(=O)c3ccccc3)cc21 [CBK261289C]	105.554
CN(C)c1ccc(Nc2cc(-c3ccco3)ncn2)cc1 [CBK090946]	115.489
c1cc(CSc2nnc(-c3ccncc3)o2)ccn1 [CBK270235]	90.1777
CN(C(=O)c1ccccn1)C1CCN(c2ncnc3ccccc23)CC1 [CBK305346]	80.1149
COc1ccc(C(=O)Nc2cccc(-c3nc4ccccc4[nH]3)c2)c(OC)c1 [CBK072662]	72.116
Cc1ccc(Cl)cc1N1CCN(C(=O)COc2ccc(S(=O)(=O)Nc3ccc(F)cc3)cc2)CC1 [CBK268229]	96.2528
CC(Cc1nc(-c2nccn2C)cs1)n1cc(Cl)cn1 (stereo not drawn) [CBK304114]	4.5059
CC(=O)c1cccc(NC(=O)/C(=C\c2cccnc2)NC(=O)c2ccc(C)cc2)c1 [CBK262456]	87.6334
Cc1ccccc1N1CCN(Cc2cccc(C(=O)O)c2)CC1 [CBK286890]	104.449

Structure (SMILES)	% of control remaining
O=C(c1ccccc1)c1ccc(S(=O)(=O)N2CCN(Cc3ccc(O)c(F)c3)CC2)cc1 [CBK062948]	85.1506
Cc1cc(=O)oc2cc(NC(=S)N3CCN(C/C=C/c4ccccc4)CC3)ccc12 [CBK267045]	117.281
O=C(Nc1ccccc1)O[C@@H]1CO[C@H]2[C@@H]1OC[C@@H]2NC(=O)C1CC1 [CBK289464]	98.7415
Cc1ccnn1C(C)C(=O)NC(Cc1ccsc1)c1nccs1 (stereo not drawn) [CBK285141]	93.4725
O=C(O)CCc1nn2c3ccccc3n(CC(=O)c3cccs3)c2nc1=O [CBK267518]	102.517
CC(NC1CCN(Cc2ccccc2)CC1)C12CC3CC(CC(c4ccc(Cl)cc4)(C3)C1)C2 (stereo not drawn) [CBK262877]	13.4131
Cc1ccc(C)c(-c2nn(-c3ccccc3)cc2/C=C2\SC(=S)N(CC(=O)O)C2=O)c1 [CBK264541]	107.808
CC(C)(C)OC(=O)NCC(N)=S [CBK007979]	109.382
CS(=O)(=O)Nc1cc2ccccc2c(-c2cccc(C(F)(F)F)c2)n1 [CBK085754]	87.2815
CCOC(=O)Cn1nc([N+](=O)[O-])c(Cl)c1C [CBK269605]	73.989
Clc1ccc(COc2nccnc2OC2CCN(Cc3ccc4c(c3)OCO4)CC2)cc1Cl [CBK083109T]	57.7432
CN1C[C@]2(CC[C@@H](C(=O)N3CCCC3)CC2)Oc2ccccc2C1=O [CBK284886]	107.436
N=C1NC(=O)/C(=C/c2ccc(OS(=O)(=O)c3ccc4ccccc4c3)cc2)S1 [CBK263605]	96.7054
COc1ccc(NC(=O)N[C@H]2C[C@@H](c3nc(-c4ccc(OC)cc4)no3)N(C)C2)cc1 [CBK288862]	119.889
CC(NC(=O)CN(c1ccc(Cl)c(Cl)c1)S(=O)(=O)c1ccccc1)c1ccccc1 (stereo not drawn) [CBK263781]	101.304
Cc1ccn2cc(CNC(=O)CN3CCOc4ccccc4C3)nc2c1 [CBK307518]	79.8334
CCC1C(=O)NCCN1C(=O)c1ccc2c(c1)ncn2C (stereo not drawn) [CBK281709]	96.8085
S=C(Nc1cccnc1)N[C@H]1CC[C@@]2(c3cccnc3)CCN(Cc3ccccc3)[C@H]2C1 [CBK028450]	103.669
Cc1cc2c(s1)c1cnn(CC(=O)NCC3CC3)c(=O)c1n2C [CBK284222]	72.4405
Cn1nc(C(F)(F)F)cc1C1CCCCCN1S(C)(=O)=O (stereo not drawn) [CBK284673]	99.6094
Nn1cnn2c(SCc3ccccc3)nnc12 [CBK263188]	59.0942
Cc1c(C(=O)N2CCC(F)(CO)C2)nnn1-c1ccc2ncccc2c1 (stereo not drawn) [CBK304483]	107.789
COc1ccc(CN2C(=O)COC[C@@H]2[C@H](O)c2ccc(NC(C)=O)cc2)cc1 [CBK289674]	124.589
O=S(=O)(c1ccccc1)N1CCN(c2cnccn2)CC1 [CBK287839]	89.3691
COCCCN(Cc1ccc(F)c(F)c1)Cc1ccccn1 [CBK282961]	118.327
COCCn1c(CN2Cc3ccc(Cl)cc3C2=O)nnc1[C@H]1C[C@@H](N)C1 [CBK307289]	50.6538

Structure (SMILES)	% of control remaining
O=c1[nH]nc2ccc(S(=O)(=O)N3CCCCC3)cn12 [CBK288459]	71.6627
Cc1ccc(CNC(=O)Cn2nnc(-c3ccc(CNCC(F)(F)F)cc3)n2)cc1 [CBK153204T]	78.5375
Oc1cccc2ccc(/C=N/N=C/c3ccc4cccc(O)c4n3)nc12 [CBK261127]	110.687
CC(C)CCNC(=O)N1CCC(C(=O)O)CC1 [CBK156075]	93.3498
COc1ccc(C(=O)NC(=S)Nc2ccc(O)c(-c3nc4cc(C)c(C)cc4o3)c2)cc1[N+](=O)[O-] [CBK264039]	87.6161
O=C(CO)N1CC2(CCN(Cc3ccc4ccccc4c3)CC2)c2ccccc21 [CBK131501]	74.7656
Cc1cc(C=O)c(O)c(/C=N/CC/N=C/c2cc(C)cc(C=O)c2O)c1 [CBK262149]	100.224
c1ccc2c(-c3ccc(OC4CCNCC4)cc3)cncc2c1 [CBK126578]	91.214
CCCN1CCN(C(=O)c2cnc(C)cn2)C(Cc2cccc(-c3cccs3)c2)C1=O (stereo not drawn) [CBK285678]	85.5589
NS(=O)(=O)c1ccc(NC(=O)/C=C/c2cccc([N+](=O)[O-])c2)cc1 [CBK261616]	98.1001
N#C/C(=C\c1ccc(-c2ccc(S(N)(=O)=O)cc2)o1)c1nc2ncc(Br)cc2[nH]1 [CBK266288]	138.176
Cc1ccn2cc(-c3ccc4c(c3)CCN4S(C)(=O)=O)cc2c1 [CBK285252]	108.437
O=C(c1ccc(F)cc1)N1CCN(c2ccc(Nc3ccncc3)nn2)CC1 [CBK287836]	93.8898
O=C(NCc1ccccn1)c1cc(-c2ccc(Cl)cc2)[nH]n1 [CBK116549]	89.2258
O=S1(=O)CCC(c2nnc(C3(c4ccc(Br)cc4)CCOCC3)o2)C1 (stereo not drawn) [CBK305513]	84.8418
NS(=O)(=O)c1ccc(NC(=O)C2Cc3ccccc3CN2S(=O)(=O)c2ccc(F)cc2)cc1 (stereo not drawn) [CBK265208]	110.498
Cn1ccnc1C1(O)CCN(C(=O)Nc2ccc(F)cc2)CC1 [CBK282277]	89.2938
O=C(CCN1CCCCC1)N1CCc2ccccc21 [CBK200413]	94.8047
COc1ccc(C(NC(=O)c2cc3ccccc3[nH]2)C2CC2)cc1 (stereo not drawn) [CBK297896]	88.9529
O=C(COc1ccc(S(=O)(=O)NC2CCCCC2)cc1)N1CCN(c2cccc(Cl)c2)CC1 [CBK265948]	85.8439
CC(=O)N1CCC(n2c(C3CC3)nc3sc(C)c(C)c3c2=O)CC1 [CBK282369]	76.5857
O=C(Nc1ccsc1C(=O)O)c1ccc(Cl)cc1 [CBK076902]	104.186
Cc1cc(Br)ccc1C(=O)NCCc1c[nH]c2ccc(Cl)cc12 [CBK159771]	39.7987
Cc1nc(N)sc1-c1csc(Nc2ncccn2)n1 [CBK263307B]	89.9291
CC(N)C(=O)Nc1ccccc1-c1ccccc1 (stereo not drawn) [CBK267700]	104.322
COC(=O)c1ccc(NC(=O)c2ccc(-n3cccn3)cc2)cc1 [CBK269486]	81.372
